The list shows a part of the results. The list includes weakly bound sequences.

The target in this test is T1, MBP-FoxP3dN (UniProt Q99JB6).
T1 sequence: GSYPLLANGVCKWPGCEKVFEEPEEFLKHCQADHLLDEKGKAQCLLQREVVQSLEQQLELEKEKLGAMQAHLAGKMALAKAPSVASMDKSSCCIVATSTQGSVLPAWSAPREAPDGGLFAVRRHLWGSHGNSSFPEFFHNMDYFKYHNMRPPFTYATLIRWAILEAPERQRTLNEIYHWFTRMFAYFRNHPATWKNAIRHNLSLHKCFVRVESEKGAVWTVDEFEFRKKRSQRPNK
The test is described as follows: PD-seq (MBP pull-down with sequencing). The note with it: 20 mM Tris-HCl pH 7.5, 100 mM NaCl, 1.5 mM MgCl2, 0.4 uM protein, 0.1 uM dsDNA library, 30 min, room temperature, amylose pull-down; high values mean tight binding; double strand, one strand shown.
As for “GATGATTGTTCTCCCAGCTGATGAATTCGACGTTTCGAGTAAACAAATTTTCCTAATCTTTCTGTTCAAGCGCCATCTAC”, the binding signal (RPM ratio (pull-down/input)) was determined as 0.772. Take “GATGATTGTTCTCCCAGCTGATGAATTCTCGACATCGAGTAAACAAATTTTCCTAATCTTTCTGTTCAAGCGCCATCTAC”: the binding signal (RPM ratio (pull-down/input)) was determined as 0.377. Under “GATGATTGTTCTCCCAGCTGATGAATTATGCGTGTCGAGTAAACAAATTTTCCTAATCTTTCTGTTCAAGCGCCATCTAC” stands 5.88; under “GATGATTGTTCTCCCAGCTGATGAATTCGAACCCTCGAGTAAACAAATTTTCCTAATCTTTCTGTTCAAGCGCCATCTAC”, 0.236; under “GATGATTGTTCTCCCAGCTGATGAATTTCTAATATCGAGTAAACAAATTTTCCTAATCTTTCTGTTCAAGCGCCATCTAC”, 0.363. As for “GATGATTGTTCTCCCAGCTGATGAATTGAATGTTTCGAGTAAACAAATTTTCCTAATCTTTCTGTTCAAGCGCCATCTAC”, the binding signal (RPM ratio (pull-down/input)) came out at 1.11. In the case of “GATGATTGTTCTCCCAGCTGATGAATTAACGCCGTCGAGTAAACAAATTTTCCTAATCTTTCTGTTCAAGCGCCATCTAC”, the binding signal (RPM ratio (pull-down/input)) was 0.676.

For the sequence “GATGATTGTTCTCCCAGCTGATGAATTTCCAGGGTCGAGTAAACAAATTTTCCTAATCTTTCTGTTCAAGCGCCATCTAC”, the binding signal (RPM ratio (pull-down/input)) is 0.127. Under “GATGATTGTTCTCCCAGCTGATGAATTCCAACCGTCGAGTAAACAAATTTTCCTAATCTTTCTGTTCAAGCGCCATCTAC” stands 0.268. Under “GATGATTGTTCTCCCAGCTGATGAATTCCATCCCTCGAGTAAACAAATTTTCCTAATCTTTCTGTTCAAGCGCCATCTAC” stands 0.43; under “GATGATTGTTCTCCCAGCTGATGAATTACTTGAGTCGAGTAAACAAATTTTCCTAATCTTTCTGTTCAAGCGCCATCTAC”, 0.261; under “GATGATTGTTCTCCCAGCTGATGAATTATGCGAATCGAGTAAACAAATTTTCCTAATCTTTCTGTTCAAGCGCCATCTAC”, 0.729. For “GATGATTGTTCTCCCAGCTGATGAATTCGGCTAGTCGAGTAAACAAATTTTCCTAATCTTTCTGTTCAAGCGCCATCTAC”, the binding signal (RPM ratio (pull-down/input)) was 1.02.

As to “GATGATTGTTCTCCCAGCTGATGAATTCCTGGTTTCGAGTAAACAAATTTTCCTAATCTTTCTGTTCAAGCGCCATCTAC”, the binding signal (RPM ratio (pull-down/input)) was found to be 0.327.

In the case of “GATGATTGTTCTCCCAGCTGATGAATTGATGGTCTCGAGTAAACAAATTTTCCTAATCTTTCTGTTCAAGCGCCATCTAC”, the binding signal (RPM ratio (pull-down/input)) was 0.916.

As for “GATGATTGTTCTCCCAGCTGATGAATTTGGGGTGTCGAGTAAACAAATTTTCCTAATCTTTCTGTTCAAGCGCCATCTAC”, the binding signal (RPM ratio (pull-down/input)) came to 1.47. For “GATGATTGTTCTCCCAGCTGATGAATTTGACTGATCGAGTAAACAAATTTTCCTAATCTTTCTGTTCAAGCGCCATCTAC” the value was 0.393. As for “GATGATTGTTCTCCCAGCTGATGAATTTTAACTTTCGAGTAAACAAATTTTCCTAATCTTTCTGTTCAAGCGCCATCTAC”, the binding signal (RPM ratio (pull-down/input)) was determined as 0.401. For “GATGATTGTTCTCCCAGCTGATGAATTATCTCGTTCGAGTAAACAAATTTTCCTAATCTTTCTGTTCAAGCGCCATCTAC” the value was 0.367. In the case of “GATGATTGTTCTCCCAGCTGATGAATTTTGACAATCGAGTAAACAAATTTTCCTAATCTTTCTGTTCAAGCGCCATCTAC”, the binding signal (RPM ratio (pull-down/input)) came to 0.626. In the case of “GATGATTGTTCTCCCAGCTGATGAATTCTAGGACTCGAGTAAACAAATTTTCCTAATCTTTCTGTTCAAGCGCCATCTAC”, the binding signal (RPM ratio (pull-down/input)) turned out to be 0.242. For “GATGATTGTTCTCCCAGCTGATGAATTTGGAAAATCGAGTAAACAAATTTTCCTAATCTTTCTGTTCAAGCGCCATCTAC”, the binding signal (RPM ratio (pull-down/input)) worked out at 0.201. Under “GATGATTGTTCTCCCAGCTGATGAATTGATAGGATCGAGTAAACAAATTTTCCTAATCTTTCTGTTCAAGCGCCATCTAC” stands 0.335; under “GATGATTGTTCTCCCAGCTGATGAATTCCCCTATTCGAGTAAACAAATTTTCCTAATCTTTCTGTTCAAGCGCCATCTAC”, 0.298. Under “GATGATTGTTCTCCCAGCTGATGAATTATTGGGATCGAGTAAACAAATTTTCCTAATCTTTCTGTTCAAGCGCCATCTAC” stands 0.71.

Take “GATGATTGTTCTCCCAGCTGATGAATTAACCCCGTCGAGTAAACAAATTTTCCTAATCTTTCTGTTCAAGCGCCATCTAC”: the binding signal (RPM ratio (pull-down/input)) was 0.214.

As for “GATGATTGTTCTCCCAGCTGATGAATTCCTGCATTCGAGTAAACAAATTTTCCTAATCTTTCTGTTCAAGCGCCATCTAC”, the binding signal (RPM ratio (pull-down/input)) turned out to be 5.61. On to “GATGATTGTTCTCCCAGCTGATGAATTCCAGTTCTCGAGTAAACAAATTTTCCTAATCTTTCTGTTCAAGCGCCATCTAC”, for which the binding signal (RPM ratio (pull-down/input)) is 0.521. Consider “GATGATTGTTCTCCCAGCTGATGAATTAACTTGGTCGAGTAAACAAATTTTCCTAATCTTTCTGTTCAAGCGCCATCTAC”, for which the binding signal (RPM ratio (pull-down/input)) came to 0.401. Turning to “GATGATTGTTCTCCCAGCTGATGAATTTCCAGTGTCGAGTAAACAAATTTTCCTAATCTTTCTGTTCAAGCGCCATCTAC”, the binding signal (RPM ratio (pull-down/input)) came out at 0.319. On to “GATGATTGTTCTCCCAGCTGATGAATTTGTAAGATCGAGTAAACAAATTTTCCTAATCTTTCTGTTCAAGCGCCATCTAC”, for which the binding signal (RPM ratio (pull-down/input)) came to 0.496.

The values above are taken from article PMC12820563.
